Reference: PubChem BioAssay AID488969 (Vanderbilt High Throughput Screening Facility, 2010)
The full ranking holds about 110,000 compounds; the median of “z-score” is about -0.1, and the highest 2% start at about 2. The list shows a part of the results.

These molecules were tested against Metabotropic glutamate receptor 8 (Rattus norvegicus) (UniProt P70579) (assay: mGluR8 Gi/Go-coupled signaling modulation – cell-based, rat, thallium flux, HTS, primary screen (AID 488969)). Details: HEK293 rat mGluR8, GIRK (G protein-gated inwardly rectifying potassium channel) thallium flux, FluoZin2; at 10 µM; stronger effect = higher value; submaximal glutamate (EC20) added with thallium.
UniProt P70579, sequence (P70579 whole entry, looked up): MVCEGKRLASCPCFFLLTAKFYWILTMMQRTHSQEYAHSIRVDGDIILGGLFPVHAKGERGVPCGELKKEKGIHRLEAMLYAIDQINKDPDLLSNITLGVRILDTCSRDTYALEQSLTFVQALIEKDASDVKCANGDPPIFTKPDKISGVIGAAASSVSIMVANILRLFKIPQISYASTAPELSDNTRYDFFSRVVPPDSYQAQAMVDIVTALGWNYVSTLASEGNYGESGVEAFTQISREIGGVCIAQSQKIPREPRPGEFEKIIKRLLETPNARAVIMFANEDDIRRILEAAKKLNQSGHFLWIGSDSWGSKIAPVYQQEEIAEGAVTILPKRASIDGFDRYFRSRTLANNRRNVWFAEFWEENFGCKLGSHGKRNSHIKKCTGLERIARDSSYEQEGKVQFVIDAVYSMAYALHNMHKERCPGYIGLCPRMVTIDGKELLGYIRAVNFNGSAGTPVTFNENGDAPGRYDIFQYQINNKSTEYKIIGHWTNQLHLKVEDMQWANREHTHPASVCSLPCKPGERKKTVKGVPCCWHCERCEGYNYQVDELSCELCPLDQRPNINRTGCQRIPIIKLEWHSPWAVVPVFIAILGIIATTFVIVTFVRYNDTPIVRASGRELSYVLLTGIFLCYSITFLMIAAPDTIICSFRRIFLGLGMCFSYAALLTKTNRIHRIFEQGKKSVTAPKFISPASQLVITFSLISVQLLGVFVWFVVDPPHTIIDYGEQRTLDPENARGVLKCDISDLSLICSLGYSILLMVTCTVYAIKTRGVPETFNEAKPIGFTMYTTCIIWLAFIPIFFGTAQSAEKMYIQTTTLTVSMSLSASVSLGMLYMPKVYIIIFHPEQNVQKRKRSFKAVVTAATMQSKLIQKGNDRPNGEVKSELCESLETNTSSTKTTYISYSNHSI

First: O=C(CSc1ncc(-c2ccccc2)n1C1CCCC1)N1CCc2ccccc21
Second: O=C(c1ccccc1)c1cc(-c2ccccc2)on1
The z-score of the first is lower: -0.347 for the first, -0.175 for the second.

First: CCn1c2ccccc2c2cc(NC(=O)CSc3nnc(-c4cccc(Cl)c4)o3)ccc21
Second: Cn1cccc1Cc1nnc(SCC(=O)NCc2ccccc2Cl)n1-c1ccc(F)cc1
The z-score of the first is lower: -0.778 for the first, 0.0628 for the second.

Going from Nc1c(C(=O)c2ccc(Cl)cc2)oc2ccccc12 to O=S(=O)(O/N=C1\CCCc2ccccc21)c1ccc(Cl)cc1, the z-score rises from -0.0786 to 0.0594.

First: CS(=O)(=O)N(CCc1ccccc1)CC(=O)N1CCN(c2ccccc2F)CC1
Second: O=C(CCN1CCN(c2ccccc2F)CC1)c1ccc(Br)cc1
The z-score of the first is higher: 1.15 for the first, -0.797 for the second.

Compared with Nc1ccc2nc(-c3ccccc3)sc2c1, CCc1ccc(NCc2nc3ccccc3c(=O)[nH]2)cc1 is lower in z-score: -0.0205 for the first, -0.644 for the second.

First: Fc1ccc(-c2[nH]ncc2-c2nnnn2-c2ccccc2)c(F)c1
Second: O=C(CSCc1ccccc1)Nc1cccc(F)c1
The z-score of the first is lower: -0.709 for the first, -0.488 for the second.

Going from Cc1csc2nc(=O)c3ccccc3n12 to C=CCn1c2ccccc2n2nc(C)c(=O)nc12, the z-score rises from -0.686 to -0.256.

First: O=C(OCC(=O)c1ccc(Cl)cc1Cl)c1ccc2c(c1)C(=O)N(c1cccc3ncccc13)C2=O
Second: CN(C)c1ccc(N=Cc2nc(-c3ccccc3)oc2OC(=O)c2cccc(Cl)c2)cc1
The z-score of the first is higher: 0.125 for the first, -0.933 for the second.

First: CCOC(=O)c1c(NC(C)=O)sc2c1CCC(C=NCCCN(CC)CC)=C2Sc1ccccc1
Second: CCOC(=O)c1c(NC(=O)COC(=O)CNC(=O)c2ccco2)sc(C)c1C
The z-score of the first is higher: 0.0383 for the first, -0.517 for the second.

Compared with C=CCNC(=S)NNC(=O)c1ccc(OCCCC)cc1, COc1ccc(OCCc2nnc(N)s2)cc1 is higher in z-score: -0.162 for the first, 0.0465 for the second.

Compared with COc1ccc(C(=O)NCc2nc3ccccc3[nH]2)cc1OC, COc1ccc(Cl)cc1NC(=O)CNc1ccccc1F is lower in z-score: -0.286 for the first, -0.487 for the second.

Going from N#Cc1nc(COc2ccc(F)cc2)oc1N1CCC(Cc2ccccc2)CC1 to COc1ccc(N2CCN(c3nc(Nc4ccc(F)cc4)nc(OC)n3)CC2)cc1, the z-score falls from -0.0698 to -0.199.

Compared with COc1ccc(-n2c(C)nn(C)c2=O)c(OC)c1, COc1ccccc1NC(=O)CSc1nc(O)cc(=O)n1C is lower in z-score: -0.0931 for the first, -0.448 for the second.

Going from CCc1ccc(C2=NN(C(=O)OC)C(O)(C(F)(F)F)C2)cc1 (configuration not stated) to CCC1=NN(C(=O)C(=O)NCCc2ccccc2)C(O)(C(F)(F)F)C1 (configuration not stated), the z-score rises from -0.152 to 0.0991.

Compared with O=C(CSc1ncn[nH]1)NC1CC2CCC1C2 (configuration not stated), Cc1n[nH]c(C)c1S(=O)(=O)N1CCN(c2ccccn2)CC1 is lower in z-score: -0.0325 for the first, -1.08 for the second.

Compared with Cc1ccc(C(=O)NCc2ccco2)cc1S(=O)(=O)N1CCOCC1, O=C(NCCN1CCOCC1)C1CCN(Cc2ccccc2O)CC1 is higher in z-score: 0.0197 for the first, 0.139 for the second.

First: O=C(Nc1cc(C(F)(F)F)ccc1Cl)c1cc2nc3c(c(C(F)(F)F)n2n1)CCCC3
Second: Nn1c(Nc2ccccc2)nc2sc3c(c2c1=O)CCC3
The z-score of the first is lower: -0.0974 for the first, -0.069 for the second.

Compared with Cc1ccc(C(C)NC(=O)Cn2nc(C)c([N+](=O)[O-])c2C)cc1 (configuration not stated), Cc1ccc(NC(=O)c2ccc(C(C)(C)C)cc2)cc1[N+](=O)[O-] is higher in z-score: -0.289 for the first, 2.5 for the second.

Compared with CC1CCc2c(sc(N)c2C(N)=O)C1 (configuration not stated), CCCCc1nnc(NC(=O)C2CCCO2)s1 (configuration not stated) is lower in z-score: 0.573 for the first, 0.294 for the second.

First: CCCn1c(C)cc(C(=O)COc2ccc(S(=O)(=O)N(CC)CC)cc2[N+](=O)[O-])c1C
Second: CCOC(=O)Nc1ccc([N+](=O)[O-])cc1C
The z-score of the first is lower: -0.314 for the first, 0.0184 for the second.

Going from O=C(N/C(=C/c1cccc(Br)c1)c1nc(=S)[nH][nH]1)c1ccccc1 to CCc1cccc(NC(=O)COc2ccccc2)c1, the z-score rises from -0.238 to 0.78.

Going from CCn1c(N2CCC(C)CC2)nc2c1c(=O)n(C)c(=O)n2C to Cc1ccc(Cn2c(SCCN3CCCCC3)nc3c2c(=O)n(C)c(=O)n3C)cc1, the z-score falls from -0.18 to -0.343.

Going from CCC(C)(C)NC(=O)C(c1cccn1C)N(Cc1ccc(OC)cc1)C(=O)Cn1nnc2ccccc21 (configuration not stated) to COC(=O)c1cccc(C(=O)Nc2ccc(C)cc2)n1, the z-score falls from 0.0645 to -0.718.

Compared with CC(C)=C1C2CCC1C1C(=O)N(c3nc(-c4ccc(C(C)C)cc4)c(C)s3)C(=O)C21 (configuration not stated), Cc1cc(C(=O)CSc2nnc(-c3ccc(F)cc3)o2)c(C)n1CC1CCCO1 (configuration not stated) is lower in z-score: -0.0235 for the first, -0.0536 for the second.

Compared with CNc1nc(N)c(C(=O)C(C)(C)C)s1, Cc1c(C(=O)COC(C)(C)C)[nH]c2ccccc12 is lower in z-score: 0.165 for the first, -0.00701 for the second.

Going from CCOc1cc(CN2CCN(C(=O)CC(C)C)CC2)ccc1OC to COC(=O)/C=C/C(=O)N1CCN(c2ccccc2)CC1, the z-score rises from -0.423 to -0.0929.

First: CCN(CC)CCNc1nc2c(c(=O)n(C)c(=O)n2C)n1C/C=C(/C)Cl
Second: CCCCC(=O)NC1(C(F)(F)F)C(=O)Nc2c1c(=O)n(C)c(=O)n2C (configuration not stated)
The z-score of the first is lower: 0.0501 for the first, 0.13 for the second.

Going from CCCNC1=C(C)C(=O)CC1 to NS(=O)(=O)c1cccc(NC(=O)CCSc2ccc(Cl)cc2)c1, the z-score falls from 0.113 to -0.162.

CC(=C/C(=O)O)/C=C/c1ccc(Cl)o1 gave a z-score of 0.0424.
